Data taken from the supplement of paper PMC3334620.
In all, about 33,000 sequences were measured (“E-score (-0.5 to 0.5)”: median about -0.041, highest 2% from about 0.37 on). This is one part of the list.

Molecular target: T1, Ecm22 (UniProt Q05958)
T1 sequence: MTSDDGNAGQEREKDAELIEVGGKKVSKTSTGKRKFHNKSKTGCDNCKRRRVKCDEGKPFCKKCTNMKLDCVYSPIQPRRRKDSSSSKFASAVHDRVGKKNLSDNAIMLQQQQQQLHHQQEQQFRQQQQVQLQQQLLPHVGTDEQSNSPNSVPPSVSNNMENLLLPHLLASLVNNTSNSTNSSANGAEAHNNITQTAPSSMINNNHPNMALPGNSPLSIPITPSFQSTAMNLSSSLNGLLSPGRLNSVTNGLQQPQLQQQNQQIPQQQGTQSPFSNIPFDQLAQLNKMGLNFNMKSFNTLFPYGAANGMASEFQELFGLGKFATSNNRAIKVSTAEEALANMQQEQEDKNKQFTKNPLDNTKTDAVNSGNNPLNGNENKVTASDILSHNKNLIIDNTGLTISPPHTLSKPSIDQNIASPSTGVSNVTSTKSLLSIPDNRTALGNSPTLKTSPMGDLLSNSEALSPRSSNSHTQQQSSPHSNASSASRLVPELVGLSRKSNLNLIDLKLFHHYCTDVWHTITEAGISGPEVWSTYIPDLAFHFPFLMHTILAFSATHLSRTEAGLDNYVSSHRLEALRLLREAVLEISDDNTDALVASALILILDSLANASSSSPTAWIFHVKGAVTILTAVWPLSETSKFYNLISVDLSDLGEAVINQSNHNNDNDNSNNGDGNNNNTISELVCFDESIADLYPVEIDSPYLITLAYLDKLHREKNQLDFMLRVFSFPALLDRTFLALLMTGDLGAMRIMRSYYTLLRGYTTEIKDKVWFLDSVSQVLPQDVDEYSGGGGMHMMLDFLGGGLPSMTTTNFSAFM
Assay: PBM E-score (8-mer binding enrichment) (E-score (-0.5 to 0.5)); higher = stronger / more preferred TF binding; most listed sequences are background and not binding sites
Settings: protein concentration: 200 nM; construct: GST-full length
Protocol: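 Universal 'all 10-mer' protein binding microarrays (Agilent AMADID 015681) probed with GST-tagged S. cerevisiae TFs (full-length or DBD) made by in vitro transcription/translation (PURExpress), about 100-200 nM. Bound TF was detected with fluorescent anti-GST. Each ungapped 8-mer (which stands for itself and its reverse complement) is scored by the PBM enrichment score (E-score), a modified Wilcoxon-Mann-Whitney statistic from -0.5 to +0.5, computed with the Universal PBM Analysis Suite. Scale: above 0.35 generally sequence-specific binding.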

Sequence	PBM E-score
CTGTCAAA	-0.0479
GTCACACA	-0.0919
ACTACTAT	0.095
GATGGCGC	-0.132
CGTGGATC	-0.0292
ACCTCGGA	0.166
AAGCGAGA	0.247
GCGGCACA	-0.0267
GACCCGGC	-0.0318
GGTTCGGA	-0.1
CACGTTGA	-0.114
ATTTAACC	-0.107
GTTTAGCA	0.088
ATGAGCGA	0.358
AGCAAACG	0.266
TCTACAGA	-0.0733
ATGGGATG	-0.251
ACCTAAGG	-0.238
ATTTTCGC	0.00272
CTGGCACA	-0.184
CAAATGAC	-0.269
AATAGCAC	-0.111
GCGTAGTA	-0.127
GTCATCAA	-0.114
AACTCAAC	-0.0436

Sequence	PBM E-score
GCCAGGCC	-0.0366
CACTTGTC	-0.00196
GGGCTTTA	-0.156
ACGCTGAA	0.176
AAGACCGT	0.00154
CTTATGGC	-0.113
GTCCAACA	-0.042
TAACTCCA	-0.121
GCGCCTCC	-0.0784
CTAGCCGA	0.0211
CTCGCTGC	0.0374
AGTCCCGA	-0.11
AGTTAGGC	-0.0269
AACGTCAT	0.0448
AGCATCAA	-0.129
ACGTCCGG	-0.155
ACATTACT	-0.165
GAGTAATA	0.0346
AGACTCTC	-0.0739
CCATTAAC	-0.109
TCGTGGAA	0.116
AAGAAGCC	-0.0728
CGAGATTA	0.236
CTTCACAC	0.0546
AGGTTCAA	-0.0733

Sequence	PBM E-score
ATAGTAGG	-0.113
CTGTGCGC	-0.0884
TACCTAAA	-0.0575
GGGCGGAC	-0.247
GTTGAAAC	0.0017
ATAACTGA	0.0764
TGGCACAA	-0.212
CATCTGCG	0.0576
AGTTGAAA	-0.146
CGTTTTGA	0.112
CCAGTGGA	-0.248
CCGACAAG	0.0206
CCCTCTCC	-0.358
ATATGTGA	-0.133
AGATGCGA	0.265
CTCCGGGA	-0.102
CCAAGAGA	-0.261
CGTTGGTC	-0.0184
CCTTTCGC	0.047
CACCGTAG	0.0943
ACTCCTAT	-0.0305
CGGGTACA	0.157
CGCCCGCG	-0.0317
ACCTTCAA	-0.226
ACGAGCAC	0.346

Sequence	PBM E-score
CAAGTCGC	-0.00243
CCATCTCA	-0.275
AGAAATTG	0.107
CTACTCTC	-0.116
GGCCTATA	0.0269
CCATCGCA	0.0116
AGTGCGGC	-0.157
AATTTTAG	0.0173
ATACGCTC	0.304
GCCAAGCA	-0.249
ATAGCCCC	-0.223
CCATCAAA	-0.0424
CAGATCAA	-0.191
GTATCATA	0.303
CGGTGAAG	0.0375
ACGTCAGA	-0.121
CTGGACTC	-0.0942
AAGCCTTC	-0.294
AGTGGGAT	0.0345
CCTTCCCA	-0.134
AAGACCCA	-0.276
CTAATACA	-0.226
GCACACGC	-0.172
AAATAACA	-0.0111
CCAGAAGC	-0.191

Sequence	PBM E-score
GATACGGC	0.32
TAATCTAA	-0.0311
CCAACGAA	0.0596
CTGAACCC	0.0346
GCGACAAC	0.178
AAGTAACC	-0.122
GAAGTTCC	-0.143
GTACTCCA	-0.0378
GAATTCTA	-0.00562
CCTCATTC	-0.203
TAGACCGA	0.175
ATGCGTCA	0.0653
GCCTAATA	-0.0452
ATCGTATG	0.438
CTATAAAA	0.0168
CCACAAGA	-0.185
CACGACAC	0.147
CCGGCGGC	-0.134
AGACACAC	-0.0414
GGATAAAA	-0.0296
ATAGCATG	-0.166
ATGTTGTC	0.0281
CGAACCCC	0.0698
AGGTGCGC	0.044
AGGGGCAC	-0.183

Sequence	PBM E-score
GTCCGAAC	0.0257
CGCGTATA	0.403
CGGATTAA	0.139
CCGTGGAC	-0.162
CACAAACG	0.327
AGTGGACA	-0.199
AGTTCAGG	-0.0568
CGGGATAA	0.0993
CACCTCCG	-0.261
CGAATTTC	0.121
CACTAGAA	-0.144
CCTTTGGC	-0.333
ATCTAGCG	-0.0546
AACAACTA	-0.142
TCCAGCGA	-0.115
GCAACTAC	-0.105
CGAGGAGC	0.265
CACGGGCC	-0.287
TAGAACAA	-0.216
GTTACCGA	0.151
CTCTATGC	-0.0553
CACGACTA	-0.0786
GCTAGCCA	-0.313
ACAGCCAT	0.033
AGTTCGAT	-0.0764

Sequence	PBM E-score
AATGGGGG	-0.268
AACTCCGT	0.00479
AAGAAAGC	0.0234
AGGCAACT	-0.02
TATCCTCA	0.0979
AAGGGACC	0.051
AACGAAAT	0.4
ACAACACA	0.0689
CAACCGAA	0.185
ACGGTAAG	0.228
GCGGGTAC	0.179
AGAATGGC	-0.137
TCATCGCA	0.162
AGGGAGTG	-0.178
AGCACGTG	0.106
AATAGTGA	-0.151
AGAGGCAG	-0.122
ACTAGCCC	-0.266
CCTCATAG	-0.183
AACTGTAT	-0.00739
CCAGGAAG	-0.204
GCTAGTAC	0.059
AATGCGTC	-0.144
CGGCTACC	-0.0704
AGAGCCTC	-0.119

Sequence	PBM E-score
CTGGCTCC	-0.202
CAGAGATA	-0.0689
GTTCCTTA	0.21
ACGGGAAG	0.105
CAGAGTAA	-0.263
GAGGGGTA	0.059
GCTCATGA	0.0254
AGAGCGAA	0.196
CATTAGAC	-0.354
GGGTTTAC	0.0709
TATAAATA	0.236
ATACCTAA	0.00421
ATACGCCG	0.277
AGCGAGTA	0.363
ACTGGCAC	-0.25
GATCTCAA	-0.0686
CTGAGACC	-0.314
GGATGGCC	-0.271
AGTGCCAA	-0.0554
AAACTAGC	-0.139
GGATAAAC	0.182
AAAGCACA	-0.0632
AACCTGCA	0.0107
AATACATA	-0.00765
AACGGGCG	0.225

Sequence	PBM E-score
GGTTACAA	0.121
AAGAAATC	0.0462
CCCCGTGA	-0.237
CGCAGGTC	-0.0744
GAGAATAA	-0.0195
AATATCTC	0.156
ATATTGCG	0.117
GTCCTCGA	-0.0879
ACAGAGCA	-0.00761
ACTCATTA	-0.0087
AGCAACAA	-0.0318
ACGGTGAT	0.107
CAACGCGC	0.102
CGCCTCAG	-0.265
ATTTGATC	0.0593
AATACCCC	-0.188
CCTATCTA	-0.206
ATGGAATA	-0.0571
AAAACCAG	-0.047
CCTAGAAC	-0.00215
TAATCCCA	-0.221
ATCCGTCG	0.252
GATTGGAC	-0.246
GAACTGAC	0.00371
CTGGTCTC	-0.162

Sequence	PBM E-score
GCAACCAC	-0.146
ACGTTGCC	-0.0326
ACCCATTG	-0.0186
ACAACGCA	0.0788
CCACTAAA	-0.0082
AGTTGGAG	-0.127
ACGGCCTG	0.0823
GGAACGCC	0.051
CCACCTGA	-0.178
AAAATCAA	-0.131
AACACCGC	-0.0635
TGTCTTAA	-0.176
ATCACTAC	-0.199
AGTTCGGA	-0.0218
ATTTGCAA	-0.0045
CAGGCGGA	-0.0338
GTCACTCA	-0.0675
TAAAGAGA	-0.207
GCAATCTA	-0.0926
ACTGCGTG	-0.033
GCAGCTCA	-0.199
TGATAACA	0.021
CAGCGATC	0.162
AGGTCGCA	0.188
GTTTCAAA	0.0508

Sequence	PBM E-score
AGGAGGGA	-0.171
GACACCAC	-0.176
AGATAAAT	-0.035
CGTAGTGA	-0.0367
ACGGCAGC	0.0307
AATGTAGC	-0.0437
ACATACTC	0.0477
CACGCACG	-0.213
ACAGAGAT	-0.093
ATTGGGTG	-0.128
ATTTTGCC	-0.176
CATCGTGG	-0.0323
TGCAGTAA	-0.162
ACCGTGGG	-0.161
ACTAGGCA	-0.198
GTCCGGAA	-0.0405
AGGGAGAT	-0.275
AAGTGAAC	0.0448
CAAATGTG	0.0621
GTGCTCCA	-0.163
ACAAAAGC	-0.0849
ATGATACC	0.146
AACGCTGC	0.00979
GCTCGTAA	0.451
ACTCGGCA	0.181

Sequence	PBM E-score
GCCACTAA	-0.252
GCACACAA	-0.0514
AAGTGTCA	-0.191
AAGTAAAA	-0.109
AATCCAAG	-0.0432
TACCTATA	-0.0275
TCCGGACA	-0.131
GTTTAATA	0.119
AAGCCGAA	-0.0177
ACTGACTA	-0.00261
ACCTCTAT	-0.113
CGCCGCCA	-0.163
CCGTACCC	0.433
AAAACCTA	0.0959
GGGCCTAC	-0.146
CACTGGCG	-0.189
ATGTCCCG	-0.0417
GCACCACC	-0.27
CCTACAAA	-0.165
ACTGTGCT	-0.234
CGGTGAGA	0.00317
AGACCCGG	-0.222
ACCCGAGA	0.248
CAATACAC	0.0386
GACGACAA	0.155

Sequence	PBM E-score
AAACGCTA	0.0339
GTGTTACA	-0.0116
AGGCGATA	-0.0429
GCCGTAGC	0.163
CGTCAGAG	-0.146
CTATTAAG	-0.193
AGCCGCCA	-0.264
TCACGGAA	0.00788
AAGCATCC	-0.241
CGGGCTCA	0.124
AACCACAC	0.103
TATCAATA	0.0585
AGTAAAAT	-0.03
ATTGGAAA	-0.124
GCCTAACA	-0.218
GTACCTTA	0.249
CAATGCAA	-0.0622
CGGAGACC	-0.0617
CTGACAGA	-0.0832
AAAACGTC	0.0734
CACATCGC	-0.0308
AGGCCCGC	0.00067
AAAGCCAC	-0.102
TATGTACA	-0.111
GTCAAAAC	0.0228

Sequence	PBM E-score
GATAGTAA	0.0119
CCCACTAG	-0.32
GTGAGCTA	-0.15
TGCATCAA	-0.0563
GGCGCATA	-0.0416
ATATAAAG	-0.0703
ACTGCCTC	-0.0892
CAAGACCG	0.106
CTCTGAAG	-0.0683
CATGAGAC	0.0346
ATCATCCA	-0.00974
AACCGTCT	-0.038
TGGCCTAA	-0.212
CGACATAG	0.0415
TGGCATAA	0.0462
CGTACGCA	0.36
TCCTGCAA	-0.0785
GGGGCGAC	-0.205
TGACTGCA	-0.0938
